Article PMC11995724, “Antibiotic target discovery by integrated phenotypic and activity-based profiling of electrophilic fragments” (Cell chemical biology, 2025)
The campaign covered roughly 3,200 compounds. About 75 (2%) showed an effect of 50% or more. The list shows a part of the results.

Each compound was assayed on T1, S. aureus MSSA476. Conditions: relative growth, OD600, TSB; 25 µM; inhibitor.
T1 construct: MSSA476
Parameters: species or system S. aureus MSSA476 (TSB) or V. cholerae SAD30 (LB); 384-well bacterial growth screen at 25 uM, OD600 relative to DMSO control

| Compound | % of control remaining [%] |
| --- | --- |
| CC(Cl)C(=O)NCCc1csc(N2CCCC2)n1 (stereo not drawn) [7-O08, 2-chloro-N-{2-[2-(pyrrolidin-1-yl)-1,3-thiazol-4-yl]ethyl}propanamide] | 87.2841 |
| COc1ccccc1CN1C(=O)C=CC1=O [10-P21, 1-[(2-methoxyphenyl)methyl]-2,5-dihydro-1H-pyrrole-2,5-dione] | 75.9375 |
| C=CC(=O)N1CCC(NC(C)=O)(c2noc(C)n2)C1 (stereo not drawn) [2-G16, N-[3-(5-methyl-1,2,4-oxadiazol-3-yl)-1-(prop-2-enoyl)pyrrolidin-3-yl]acetamide] | 93.2985 |
| CCOc1ccc(-n2c(C)cc(C(=O)CCl)c2C)cc1 [10-K08, 2-chloro-1-[1-(4-ethoxyphenyl)-2,5-dimethyl-1H-pyrrol-3-yl]ethan-1-one] | 38.75 |
| COc1ccc2[nH]c(C)c(C(=O)CCl)c2c1 [10-L05, 2-chloro-1-(5-methoxy-2-methyl-1H-indol-3-yl)ethan-1-one] | 73.4375 |
| CC(Cl)C(=O)N1CCCCC1c1cnn(C)c1 (stereo not drawn) [7-A03, 2-chloro-1-[2-(1-methyl-1H-pyrazol-4-yl)piperidin-1-yl]propan-1-one] | 97.0173 |
| CN(CC(=O)Nc1ccc(F)cc1)C(=O)CCl [4-B05, 2-chloro-N-{[(4-fluorophenyl)carbamoyl]methyl}-N-methylacetamide] | 104.05 |
| Cc1nc2cc(=O)[nH]n2c(C)c1CNC(=O)C(C)Cl (stereo not drawn) [7-B07, 2-chloro-N-({5,7-dimethyl-2-oxo-1H,2H-pyrazolo[1,5-a]pyrimidin-6-yl}methyl)propanamide] | 113.344 |
| C=CC(=O)N1CCC(C(=O)N[C@]2(C(=O)OC)CC[C@@H](C)CC2)CC1 [3-E17, methyl (1r,4r)-4-methyl-1-[1-(prop-2-enoyl)piperidine-4-amido]cyclohexane-1-carboxylate] | 118.415 |
| Cc1cc(C(=O)CCl)c(C)n1Cc1ccccc1Cl [10-P16, 2-chloro-1-{1-[(2-chlorophenyl)methyl]-2,5-dimethyl-1H-pyrrol-3-yl}ethan-1-one] | 127.813 |
| COc1cc2c(cc1OC)C(c1ccccc1)N(C(=O)CCl)CC2 (stereo not drawn) [6-K12, 2-chloro-1-(6,7-dimethoxy-1-phenyl-1,2,3,4-tetrahydroisoquinolin-2-yl)ethan-1-one] | 102.439 |
| CC1CCCCC1NC(=O)C(C#N)=Cc1ccc(N2CCOCC2)cc1 (stereo not drawn) [8-I06, 2-cyano-N-(2-methylcyclohexyl)-3-[4-(morpholin-4-yl)phenyl]prop-2-enamide] | 101.245 |
| O=C(CCl)NCc1ccccc1[N+](=O)[O-] [6-A22, 2-chloro-N-[(2-nitrophenyl)methyl]acetamide] | 100.39 |
| COc1ccc2nnc(CNC(=O)C(C)Cl)n2n1 (stereo not drawn) [7-J15, 2-chloro-N-({6-methoxy-[1,2,4]triazolo[4,3-b]pyridazin-3-yl}methyl)propanamide] | 100.471 |
| COc1cc2c(cc1NC(=O)C(C)Cl)oc1ccccc12 (stereo not drawn) [6-G09, 2-chloro-N-{4-methoxy-8-oxatricyclo[7.4.0.0,2,7]trideca-1(9),2(7),3,5,10,12-hexaen-5-yl}propanamide] | 106.878 |
| N#CC(=Cc1ccc(N2CCOCC2)cc1)C(=O)Nc1nccs1 [9-F17, 2-cyano-3-[4-(morpholin-4-yl)phenyl]-N-(1,3-thiazol-2-yl)prop-2-enamide] | 100.075 |
| C=CC(=O)Nc1ccc(F)cc1C(C)(F)F [1-C16, N-[2-(1,1-difluoroethyl)-4-fluorophenyl]prop-2-enamide] | 103.385 |
| C=CC(=O)Nc1ccc(C(=O)N[C@@H]2CCN(C(C)=O)C2)cc1 [2-F20, N-[(3R)-1-acetylpyrrolidin-3-yl]-4-(prop-2-enamido)benzamide] | 124.282 |
| CC(=O)Nc1ccc(C=C(C#N)C(=O)Nc2cccc(C)c2C)cc1 [9-D19, 2-cyano-N-(2,3-dimethylphenyl)-3-(4-acetamidophenyl)prop-2-enamide] | 95.8801 |
| O=C(Nc1nccs1)N1CCSSCC1 [10-O22, N-(1,3-thiazol-2-yl)-1,2,5-dithiazepane-5-carboxamide] | 109.063 |
| C=CC(=O)NCc1c(F)cccc1S(=O)(=O)N(C)C [3-L15, N-{[2-(dimethylsulfamoyl)-6-fluorophenyl]methyl}prop-2-enamide] | 105.529 |
| C=CC(=O)N1CCC(C(O)c2ccnn2C)CC1 (stereo not drawn) [3-K03, 1-{4-[hydroxy(1-methyl-1H-pyrazol-5-yl)methyl]piperidin-1-yl}prop-2-en-1-one] | 89.8563 |
| Cc1ccccc1C(C)NC(=O)C(C#N)=Cc1ccco1 (stereo not drawn) [9-E06, 2-cyano-3-(furan-2-yl)-N-[1-(2-methylphenyl)ethyl]prop-2-enamide] | 84.794 |

| Compound | % of control remaining [%] |
| --- | --- |
| N#CC(=CNc1ccc(F)cc1)C(=O)NCc1ccccc1 [8-E20, N-benzyl-2-cyano-3-[(4-fluorophenyl)amino]prop-2-enamide] | 89.2946 |
| Cc1ccc([N+](=O)[O-])cc1N1C(=O)C=CC1=O [10-O14, 1-(2-methyl-5-nitrophenyl)-2,5-dihydro-1H-pyrrole-2,5-dione] | 119.687 |
| CC(C)(C)OC(=O)[C@H]1C[C@@H]1C(=O)CCl (racemic) [10-C13, rac-tert-butyl (1R,2R)-2-(2-chloroacetyl)cyclopropane-1-carboxylate] | 128.438 |
| CN(C)S(=O)(=O)c1ccc(Cl)c(NC(=O)CCl)c1 [6-H12, 2-chloro-N-[2-chloro-5-(dimethylsulfamoyl)phenyl]acetamide] | 88.439 |
| Cc1cccc2[nH]cc(C(=O)CCl)c12 [10-H09, 2-chloro-1-(4-methyl-1H-indol-3-yl)ethan-1-one] | 97.5 |
| CC(C)(C)N(Cc1ccccc1)C(=O)CCl [5-H20, N-benzyl-N-tert-butyl-2-chloroacetamide] | 81.9672 |
| C=CC(=O)N1CCOC(c2ccccc2Cl)C1 (stereo not drawn) [1-P20, 1-[2-(2-chlorophenyl)morpholin-4-yl]prop-2-en-1-one] | 97.4066 |
| C=CC(=O)NCc1ccccc1-n1ccc(C)n1 [1-J19, N-{[2-(3-methyl-1H-pyrazol-1-yl)phenyl]methyl}prop-2-enamide] | 110.066 |
| C=CC(=O)NC(c1nnc2n1CCC2)C(C)C (stereo not drawn) [3-P07, N-(2-methyl-1-{5H,6H,7H-pyrrolo[2,1-c][1,2,4]triazol-3-yl}propyl)prop-2-enamide] | 123.988 |
| Cl.O=C(CCl)NCC(c1nccs1)N1CCCC1 (stereo not drawn) [6-D11, 2-chloro-N-[2-(pyrrolidin-1-yl)-2-(1,3-thiazol-2-yl)ethyl]acetamide hydrochloride] | 88.0976 |
| N#CC(=Cc1cccc2ccccc12)C(=O)NCc1ccc(Cl)cc1 [8-J09, N-[(4-chlorophenyl)methyl]-2-cyano-3-(naphthalen-1-yl)prop-2-enamide] | 90.9544 |
| C=CS(=O)(=O)Nc1ccccc1 [10-C07, N-phenylethene-1-sulfonamide] | 117.188 |
| C=CC(=O)N(C)Cc1cc2ccccc2o1 [3-I09, N-[(1-benzofuran-2-yl)methyl]-N-methylprop-2-enamide] | 108.663 |
| O=C(CCl)Cc1ccc(Cl)cc1Cl [10-A15, 1-chloro-3-(2,4-dichlorophenyl)propan-2-one] | 112.188 |
| CC(Cl)C(=O)N1CCOC(c2ccc(Cl)s2)C1 (stereo not drawn) [6-N07, 2-chloro-1-[2-(5-chlorothiophen-2-yl)morpholin-4-yl]propan-1-one] | 105.512 |
| C=CC(=O)N1CCC(C(=O)NCc2ccc(C(N)=O)nc2)CC1 [3-N05, 5-({[1-(prop-2-enoyl)piperidin-4-yl]formamido}methyl)pyridine-2-carboxamide] | 97.1702 |
| C=CC(=O)NC1CCSC(C)C1 (stereo not drawn) [1-J06, N-(2-methylthian-4-yl)prop-2-enamide] | 108.308 |
| CC(Cl)C(=O)Nc1sccc1C(N)=O (stereo not drawn) [5-C21, 2-(2-chloropropanamido)thiophene-3-carboxamide] | 96.9035 |
| C=CC(=O)NCc1cc(C(F)(F)F)on1 [3-F20, N-{[5-(trifluoromethyl)-1,2-oxazol-3-yl]methyl}prop-2-enamide] | 99.9565 |
| C=CC(=O)N1CCC(C(=O)NCc2cc(C)c[nH]c2=O)CC1 [3-H03, N-[(5-methyl-2-oxo-1,2-dihydropyridin-3-yl)methyl]-1-(prop-2-enoyl)piperidine-4-carboxamide] | 83.5873 |
| C=CC(=O)N1CCOC(CNC(=O)NC)C1 (stereo not drawn) [3-A18, 3-methyl-1-{[4-(prop-2-enoyl)morpholin-2-yl]methyl}urea] | 112.843 |
| COc1ccc(C=C(C#N)C(=O)NC2CCCCC2)cc1O [8-H13, 2-cyano-N-cyclohexyl-3-(3-hydroxy-4-methoxyphenyl)prop-2-enamide] | 119.834 |
